According to the supplement of paper PMC10126150:
Values marked as one replicate rest on one cluster of the flow cell; about a third of the high ones do not repeat.

Test system: ATP
Test: switch fluorescence ratio, 500 uM ATP over buffer (Cy3 cluster intensity, sum of 5 cycles each) (fold (ratio)); higher = stronger signal-on switching upon ATP binding; sequences stand for … in TCGTCGGCAGCGTCAGATGTGTATAAGAGACAGTTTTTTTTTTTTTTTTTTTTTTTTT…TC
Conditions: aptamer strand: ATP DNA aptamer (quencher-CACCTGGGGGAGTATTGCGGAGGAAGG + anchor), 100 nM annealed; ATP concentration: 500 uM; one replicate
Summary of the method: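 For every switch-domain sequence, the fluorescence ratio is the mean of per-cluster values, each being summed target-cycle Cy3 intensity over summed buffer-cycle Cy3 intensity. Clusters outside 100-1000 RFU were excluded. On a modified Illumina MiSeq flow-cell, the Cy3-labelled switching-strand clusters were annealed to 100 nM quencher-labelled ATP aptamer, imaged in selection buffer and then after 15 min with 500 uM ATP at 22 °C. Five such cycles were run, with NaOH stripping and re-annealing between them.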
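Note: ATP exposure 15 min at 22 °C before imaging.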

Sequence	switch fluorescence ratio
TGAAACGAGG	0.995
GTGTCATTCG	0.962
TTTCGGGACA	1.03
TGTTAATGAC	1.04
TAATTGGCGA	1.03
TTCAGACAGC	1.02
GTCCGTGGGT	1.01
CAAGACTGCA	1.05
TTTCTTTCG	1.11
AAGGGTCATC	0.979
CTGGGGCATA	1.4
TGTAGTGGTT	1.04
TCCTGCTTCC	1.88
GGGACAAGG	1.01
TTGAATTGTA	0.985
GGATGAATGT	0.974
ATATCTCGTG	1.03
TTCTTCCCAA	1.45
AAAGGGCCAC	0.973
TTTGGCACAG	1
CCTTAATACA	1.13
ACCCCGCCTC	1.9

Sequence	switch fluorescence ratio
ACGGACGTAT	1.01
ATGGAAAAAA	1.03
AACGTCTCGG	1
GTTCTCTGTT	0.977
GCGCTAATGG	1.46
AAGAGATCTC	1.01
GCCTAGTTAC	1.09
GCAATTCTTC	1.69
CATTCACTCC	1.17
GCGTTGTCAT	0.986
ATTGAACCCG	1
AAGTTTGGGT	0.974
TACGTAGTTC	1.04
AGATTGAAGC	0.998
CCACTTTAAA	1.06
GGACTGATCG	0.994
ACTTAGAAGA	1.01
GGATGCGCTA	1.03
AACTCGGGAA	1.13
ATATACGATC	1.05
TTTATTTGGG	0.968
CCTGGCCTGT	0.972

Sequence	switch fluorescence ratio
TTGGACCTAG	1
CAAGACGCTT	1.05
ACGGATATAT	1.01
ACGGTCGGCG	1.03
AAAATGCGC	1
AGATATTGTG	0.983
AATATAATTT	0.99
GCATTCAGTT	0.956
ACCCGTGAA	1.11
TTTAGCATCC	1.96
TCACTTGATT	0.98
TACGCGTGTT	1.01
GCAATTAGTC	1.56
GACGCTTTGT	1.09
AATAGACTCG	0.983
AGGGCTTGCG	0.999
GAATTTCTAA	0.984
GCATGCTCAT	1.03
GCCCCTAGAT	1.03
GACTTCTTCT	0.977
ACGGGAGCGA	0.985
ACAAGCTCTA	1.03

Sequence	switch fluorescence ratio
GCTAGGACTC	1.02
TTTTCCTTTA	1
AAACCCACCT	1.31
TGTGCGTTGG	1.05
GGGCCCTTGT	1.03
GTTGCACCAC	0.992
CCATGCGCCA	1.6
CGTTGGGTTA	0.969
GGCCTAGCCG	0.999
CCGGGCCCCG	1.53
TAGACGAAGG	1.01
TGGATCGAAG	1.02
CGTAGAGGTC	0.999
CATTGTATTT	0.965
GACCGGTTAC	1.15
GTTGAATGTT	1.02
AGGACGCA	1.26
GGATTCACCT	1.1
TTGCAAGCTA	1.05
